Test results as given in publication PMC12136788.
The other results are listed elsewhere or left out.

T1: UNK ZnF1-3 (human, UniProt Q9C0B0 31-174)
T1 sequence: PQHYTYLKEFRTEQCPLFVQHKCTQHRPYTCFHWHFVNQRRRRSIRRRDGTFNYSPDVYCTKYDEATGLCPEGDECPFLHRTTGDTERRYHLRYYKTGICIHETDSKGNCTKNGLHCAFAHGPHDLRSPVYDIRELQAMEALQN

B1: chr4:148551591:148551592:-_ENSMUSG00000063077_ENSMUST00000060537|mus_hu|mus_mus_mus_hu_False|78_108 (ssRNA)
RNA: GGGAGUUCUACAGUCCGACGAUCACCUUACAAAAUUAAAUAUCCCUGUAAAUUAGACAAGAAGCAGCAGGCAACAAAGUCUUUGCUUUGGAAUAUGUGCCAGGAAAAGUCAUCUUGUUUUUAGAUCUCAAGAGACAGUUCACACAACAGAGGAUUGAGCAUCA
B2: chr5:52541547:52541548:-_ENSMUSG00000029169_ENSMUST00000031061|mus_mus|FALSE|FALSE (ssRNA)
RNA: GGGAGUUCUACAGUCCGACGAUCUAUGGAGACAGAAGAUUGUGUCUACAGAAGCACAAGUUGUAACAUUUCACAACUUCUAAAAGGAAUGUCAACAAUUACAACGAUCAUGCAUACCAUGGUCGAUAAUCACAUUUUAGAAGCCAACAGAGGAUUGAGCAUCA
B3: chrX:148277548:148277549:+_ENSMUSG00000025261_ENSMUST00000112622|mus_hu|motif|central (ssRNA)
RNA: GGGAGUUCUACAGUCCGACGAUCGAGGACUGCCAGCACCACUUGCAUAUCAGAGGAAGCCAAUAAAGUUGUCAAAUGCUCGGUGGAACUGUACAGAUGCCGGGAAAAGCUGUACUCAAUGAGCAAGGCUGUGAAGUUCAACACCAACAGAGGAUUGAGCAUCA
B4: chr8:27252840:27252841:+_ENSMUSG00000013878_ENSMUST00000014022|mus_hu|FALSE|FALSE (ssRNA)
RNA: GGGAGUUCUACAGUCCGACGAUCAGCAACGCCAGCUGAAGUGAGUAAGAUCUCCCAGUACCAUGUGGUACUGAGUCUUCUCAGAUACAUUCACUUGUUUGGCUCAAGACAUGAAUCUGAGCUGUGUGCUGCCAUCCUGAGACACAACAGAGGAUUGAGCAUCA
B5: chr14:78183846:78183847:+_ENSG00000119705_ENST00000557342|hu_hu|hu_hu_hu_mus_False|8_18 (ssRNA)
RNA: GGGAGUUCUACAGUCCGACGAUCUCUCAGAAAUCUUUCUUCAUCAGAUGUUUGAGCUCCGUGCAAAGCCUUUGCUCUUUGAGCUUGAACGUGGAUCUAUGGGAGGGAAAGCACUGUAUUUUCCUGUUGUAGUGCAUUUAAAGACAACAGAGGAUUGAGCAUCA
B6: 35858934_35859054_2102_3pUTR_ENSG00000108100_ENST00000265375|human|control|control (ssRNA)
RNA: GGGAGUUCUACAGUCCGACGAUCAAGGAGAGGAAUGGAUUAGGCAGGGGUACAAAGAAAUGGCUCCUACUCGGUAGUUCCAGGCACAUGCCCAGCACUCUGCAGAACUCUCACAGGGACACCCUCUGCUGCACCGUGUCCUUCCAACAGAGGAUUGAGCAUCA
B7: chr1:60041781:60041782:+_ENSMUSG00000041040_ENSMUST00000036540|mus_hu|mus_mus_mus_hu_False|58_58 (ssRNA)
RNA: GGGAGUUCUACAGUCCGACGAUCAAGUUUACAAUAGUAAAGUAAAUGCAGUAGUGGCAAAUUUUCUUUUAUUUUCCUUCCUAAAAGAAAAUCUUUAUAACCCAGUCCUAGUCUUGGACAUAGUGAAAGCUAUAAAUUCUGACUCAACAGAGGAUUGAGCAUCA
B8: chr4:129011843:129011844:-_ENSMUSG00000057236_ENSMUST00000102598|mus_mus|FALSE|FALSE (ssRNA)
RNA: GGGAGUUCUACAGUCCGACGAUCGGCAUGGGUCAUCACCAAAUCAUAAAGAAAAGGGGUGUUCUUCUUCCAUAUUUUGUACUCCUCGUUGAUCACCCGUUCUUCCACUGCGUCGUCAAAGGCCGCUUCCUUGUCAGCCAUGGCCAACAGAGGAUUGAGCAUCA
B9: chr7:109302599:109302600:-_ENSMUSG00000063550_ENSMUST00000070165|mus_hu|motif|central (ssRNA)
RNA: GGGAGUUCUACAGUCCGACGAUCGGAAUCUUCAUCUCCAUCCUGCUGGUGAUUCUCAUCAACAGGUUUGCUUAGGAAACGGAAUCUCUCUCCAUUUUCUGGAUAUUCAGAUGGUGAAGCUAGAUUUUCUGAAUCACGAUUAACCAACAGAGGAUUGAGCAUCA
B10: chr11:23187360:23187361:+_ENSMUSG00000020290_ENSMUST00000020538|mus_mus|FALSE|FALSE (ssRNA)
RNA: GGGAGUUCUACAGUCCGACGAUCGCUCACCCAACCAGAUAUUAACUUUAAAGUUUCCCUUUUUACUGUCCGCAUACUUCUAAUCAAUGGUUGCUUUGUAACCAUCUCACCAUUAGCUUGAAUAGCUGCAGAAAUAUUUUCACUCAACAGAGGAUUGAGCAUCA
B11: chr3:10015032:10015033:+_ENSMUSG00000027533_ENSMUST00000029046|mus_mus|mus_mus_mus_hu_True|8_58 (ssRNA)
RNA: GGGAGUUCUACAGUCCGACGAUCGUUUUUACCAUCACAAGUGAUGAUACAAUCUGGCUUGGCCAUUGCGCCCAUUUUCCUAAGAGCUAUUCCCACUCCUAGCUCCUUCAUGUAUUCAUCAAAGCCUUGGCUUUCCACCAGGCGCAACAGAGGAUUGAGCAUCA
B12: chr3:41266445:41266446:+_ENSG00000168036_ENST00000349496|perfect_dup|motif|central (ssRNA)
RNA: GGGAGUUCUACAGUCCGACGAUCCAUAGCAGCUCGUACCCUCUGAGCUCGAGUCAUUGCAUACUGUCCAUCAAUAUCAGCGGCUUGUUCUUGAGUGAAGGACUGAGAAAAUCCCUGUUCCCACUCAUACAGGACUUGGGAGGUCAACAGAGGAUUGAGCAUCA
B13: chr7:140881322:140881323:-_ENSMUSG00000030979_ENSMUST00000135760|mus_mus|FALSE|FALSE (ssRNA)
RNA: GGGAGUUCUACAGUCCGACGAUCUAAUCUGGUCAAAGCUGCUGCCAGAUAACGCCUGAAUAUACUCGAGGCUGUAUUUAAGGCCGGAGGGACUGAAAAACGUGAUGCUGGCUGGGAUACCCUGAUCUUCAUAGUAGCUCUUCACAACAGAGGAUUGAGCAUCA
B14: 128445656_128448168_5465_CDS_ENSMUSG00000014355_ENSMUST00000014499|mouse|control|control (ssRNA)
RNA: GGGAGUUCUACAGUCCGACGAUCGAAAUAUUCAGCAAAUGACAGAAGUGCUGGAUCAGAAGUGAAUGAUGAAAUUGUUUCAGGCUUGAAAGCCCGGGCUUCAGAGUUCCUAUUAGCAACAGUUUGUGCCAACAAACUCUGCCACAACAGAGGAUUGAGCAUCA
B15: chr4:21803547:21803548:+_ENSMUSG00000028248_ENSMUST00000098238|mus_mus|motif|central (ssRNA)
RNA: GGGAGUUCUACAGUCCGACGAUCUUCACUUGAAGAGUAAUCUAAAACACUUUAAGGUAUGAAAAUUUUAUACAACUUAUCGGUUACAAAUUAAUCAGAAUUCUUCAAUUAGAUACACUGUGUUAGCUCACCUACAUAAAAAAUCAACAGAGGAUUGAGCAUCA
B16: chr5:80946147:80946148:-_ENSG00000145687_ENST00000505980|hu_hu|motif|central (ssRNA)
RNA: GGGAGUUCUACAGUCCGACGAUCUGUUUGAGCUGAUUUCUGAGCUCCUACAUGGAGCAGAUAUUCAUAUACGUAGAGUGCGGACUUCUCCCGGGCCUGGCUGUCGGACGGGACGGCGCUGCUGUUACUCUUGCCUUUGCCGUACAACAGAGGAUUGAGCAUCA
B17: chr4:17845017:17845018:+_ENSG00000109805_ENST00000514176|hu_mus|hu_hu_hu_mus_False|58_108 (ssRNA)
RNA: GGGAGUUCUACAGUCCGACGAUCGCUUCCUAACUUAGUAUCUUCAUUAAGGAACUCUGCAAGGUUAAGUUUACUUUUUCUAGUGCUAGCUGUUUUGGCUCGUCUGGGUAAUCUCAUCUUCAUUUCUGAUGGUGGUUCAUGAUCCAACAGAGGAUUGAGCAUCA
B18: chr2:48026839:48026840:+_ENSG00000116062_ENST00000540021|hu_mus|FALSE|FALSE (ssRNA)
RNA: GGGAGUUCUACAGUCCGACGAUCAUAGUGAGCCACUAGCGUCCUAAAUCUGGAACAGUGGCGGUCAUCCGAAAACUGGCCGAUGAAAAACUUGCCCAGUGAAGUGUCCACAAAGCAAACACCAUACACACGAGUGUGACCAGACAACAGAGGAUUGAGCAUCA
B19: chr5:95130247:95130248:+_ENSG00000164292_ENST00000379982|hu_hu|motif|central (ssRNA)
RNA: GGGAGUUCUACAGUCCGACGAUCGGUUUGUGAGUUUCUGAUAUAAUUAUUUCUCUAUACAUGUGAUAUGAAAGAAAGAAACGGUCAGUCUGUCCUCUAUCCCAGUCCAUUUUCCCUCUAUGUAACAAGUCUUUGACUUACAUCCAACAGAGGAUUGAGCAUCA
B20: chr3:179287964:179287965:+_ENSG00000136518_ENST00000429709|hu_hu|hu_hu_hu_mus_True|58_78 (ssRNA)
RNA: GGGAGUUCUACAGUCCGACGAUCCUUGAGUGGUGAGAUGGCCUCCAUGUUCUCCCUCGGAACACGCAGGGCAUUGGUAUCUAUGUAGUAGGUGGGCCCGCCCUGCUUGCCUUUGUCACCAUCAAUCUCCAUCAUUGUACUUCCCAACAGAGGAUUGAGCAUCA
B21: chr3:150289932:150289933:+_ENSG00000144895_ENST00000460851|hu_hu|hu_hu_hu_mus_False|78_108 (ssRNA)
RNA: GGGAGUUCUACAGUCCGACGAUCCUUGUAGUUUUUCACAUCCCAUACUUCCAUUUGUCCCCUCAGAUUUCCAAAUCCAGCCAGCACUAAUAUAUGUCCAUGAGGGCUAUAGAAGGCUGCGUUGCGAGGACCAGUCCCAAAGUCCAACAGAGGAUUGAGCAUCA
B22: 109690576_109690696_4732_CDS_ENSG00000148143_ENST00000277225|human|control|control (ssRNA)
RNA: GGGAGUUCUACAGUCCGACGAUCAGCAGCCUUCACUUUCAUGCCAGGGUGCUUCUUCCCAUAAUGAGUGAGAAGGCCGUGCAAGUUGUUAUACUCAGAUUGGCAUACCGUGCACUGGUAUGGGGUGGAGGAUAUGGCGGGGUUCAACAGAGGAUUGAGCAUCA

Target: T1, UNK ZnF1-3
Assay: nsRBNS (natural sequence RNA bind-n-seq); RBNS binding buffer (assumed for nsRBNS): 25 mM Tris pH 7.5, 150 mM KCl, 3 mM MgCl2, 0.01% Triton X-100, 500 ug/ml BSA, 20 U/ml SUPERase-In, 4 C; UNK is unkempt and MSI1 is Musashi-1; names of the RNAs are library labels; protein concentration not given here; high values mean tight binding

Row | Binder | binding signal [enrichment R]
1 | B1 | 1.38
2 | B2 | 1.14
3 | B3 | 1.69
4 | B4 | 0.739
5 | B5 | 1.09
6 | B6 | 1.63
7 | B7 | 0.754
8 | B8 | 0.786
9 | B9 | 0.444
10 | B10 | 0.777
11 | B11 | 0.54
12 | B12 | 0.485
13 | B13 | 1.22
14 | B14 | 1.04
15 | B15 | 1.04
16 | B16 | 0.649
17 | B17 | 0.437
18 | B18 | 1.13
19 | B19 | 0.58
20 | B20 | 0.417
21 | B21 | 1.16
22 | B22 | 1.35
